# Measurements from ChEMBL document CHEMBL4888484, “Replenishing the malaria drug discovery pipeline: Screening and hit evaluation of the MMV Hit Generation Library 1 (HGL1) against asexual blood stage Plasmodium falciparum ,using a nano luciferase reporter read-out” (2022).
# About 540 (0.36%) of roughly 150,000 compounds showed an effect of 50% or more. Some of the results follow.
# Tested on: Plasmodium falciparum
# Experiment: Primary screen in NF54 nanoGlo assay, in single point, at 2uM, 72h; a lower Z score goes with more inhibition
# Assay type: functional, Erythrocyte
# Conditions: timepoint 72 hour
Structure (SMILES),% Inhibition [%],Z score
OC[C@H](Cc1ccc(F)cc1)NCc1ccc(Cl)cc1-n1cncn1,-4,0.44
CC1(C)COc2c(CN3CCC[C@H]3c3nc(-c4ccccn4)no3)cc(Cl)cc21,-13,2.47
Cn1cccc1[C@@H](C#N)N1CCCCCC1,-15,1.72
COc1ccc(S(=O)(=O)NC[C@H]2COCc3nc4c(C)cccc4n32)cc1,-2,0.39
O=C1NC(=O)C2(CCN(C(=O)c3csc4ccccc34)CC2)N1,-2,0.29
O=C(Nc1ccccc1C(=O)N1CCC(c2nc3ccccc3o2)CC1)c1ccco1,-3,0.29
COC(C)C(N)=NOC1CCCN(c2ccc(F)cc2C)C1=O (stereo not drawn),0,-0.09
Cc1cc(C)cc(NC(=O)[C@@H]2CCCN2S(=O)(=O)c2ccc3c(c2)NC(=O)CO3)c1,1,-0.08
C#CCNC(=O)c1ccc(=O)n(Cc2nc(C(F)(F)F)cs2)c1,-18,2.88
CCOc1cc(N2CC[C@@](O)(CN(C)C)C2)nc(C)n1,-1,0.15
O=C(c1ccc(-c2nc(-c3ccc(F)cc3)no2)cc1)N1CCN(c2ccccc2)CC1,-4,0.42
CC[C@H]1CCCCN1C(=O)c1nc2ncccc2o1,-9,0.82
CC(=O)N1CCCN(CC(=O)N2CCC[C@H]2c2cccs2)CC1,4,-0.57
N#Cc1c(NCCOC[C@H]2CCCO2)nc2ccccn12,-12,1.41
O=C(NCc1cccnc1)c1csc(CN2CCC(Cc3ccccc3)CC2)n1,5,-0.56
CCCn1nnnc1CN1CCO[C@@H](C)C1,-3,0.33
OCc1nc2cc(-c3ccc4c(c3)OCCO4)ccc2[nH]1,-16,2.66
c1ccc(-c2ncc[nH]2)c(OCCCn2ccnc2)c1,-7,1.21
Cc1n[nH]c(C)c1S(=O)(=O)NCCn1nc2c(cc1=O)CCC2,13,-1.68
COc1ccc2c(c1)CNCC[C@H]1COC(=O)N21,33,-3.7
O=C(COC(=O)c1cccnc1)Nc1ccc2c(c1)OCO2,2,-0.21
Cc1cccc(CN2CCN(C(=O)CN3C(=O)CNC3=O)[C@@H](C)C2=O)c1,5,-1.01
CCOc1ccc2c(c1)C(=C1SC(C(=O)OC)=C(C(=O)OC)S1)C(=S)C(C)(C)N2C(=O)COc1ccc(F)cc1,-18,1.91
CC(C)=Cc1oc2c(Cl)cc(Cl)cc2c1N1CC(C)OC(C)C1 (stereo not drawn),0,0.02
COc1cc(NC(=O)N2CCCCCCC2)ccc1N1CCOC1=O,-9,1.24
Fc1cc(Cl)ccc1CN1CCO[C@H](C2CC2)C1,-14,2.59
CCCc1ccc(-c2ccc(-c3c(-c4ccc(Cl)cc4)cnn3C(=O)c3ccc(C)cc3)cc2)c(F)c1,0,-0.05

Structure (SMILES),% Inhibition [%],Z score
O=C(Cn1ncnn1)N1CCc2cc(Br)cc(F)c2C1,6,-0.93
CCn1nccc1-c1cc(OC)ns1,6,-0.64
Cc1ccccc1N1CCC(NCCn2ccnn2)CC1,-2,0.4
CCc1n[nH]c(NS(=O)(=O)c2cccc(CC#N)c2)n1,-10,1.39
Cc1cccnc1NC(=O)c1cc(Cl)c2c(c1)OCCCO2,5,-1.06
O=C(CNc1cccc(Cl)c1F)N1CCC[C@H]1c1cccs1,1,-0.14
CN(C[C@H]1COc2ccccc2O1)C(=O)c1cc2sccc2[nH]1,-7,1.05
Cc1csc(-c2nc3cc(Cl)ccc3c(=O)[nH]2)n1,23,-2.57
N#Cc1ccc(-c2cc(N3CCNCC3)[nH]n2)cc1,-20,2.92
CO[C@H]1CCCN(C(=O)Nc2c(C(F)(F)F)c(C)nn2C)CC1,-2,0.31
CCOc1cccc(CN2CCC3(CC2)c2ccccc2[C@@H](NC(=O)C(C)C)[C@@H]3OC)c1,-5,0.84
O=C(Nc1cnns1)[C@H]1CCCOC1,10,-1.42
Cn1cc(-c2cc3n(n2)CCCN3C(=O)CCC(=O)NC2CCCCC2)c2ccccc21,-12,1.56
CC(C)(C#N)c1ccccc1Br,-2,0.37
CC(C)c1noc(N2CC3CCC2C3)n1 (stereo not drawn),-2,0.19
CN1CCN(C(=O)C2(C#N)CCCC2)c2cc(Cl)ccc21,-5,0.79
CN(C[C@H]1CCOC1)c1ccnc(Cc2ccccc2)n1,2,-0.21
CCn1cnnc1[C@H](C)NS(=O)(=O)c1cccnc1,3,-0.39
CCc1nnc(NC(=O)CNc2ccc(C)cc2)s1,-15,1.7
O=C(COc1ccc2c(c1)C(=O)CC2)Nc1nc[nH]n1,9,-1.17
CCCn1c(C)nnc1COC(=O)c1scnc1C,-1,0.26
CCOc1ccc(C(=O)N2C[C@@H](CC(=O)O)[C@@H](c3cn(C)nn3)C2)o1,-10,1.28
O=C1CN(CCCO)C(=O)CCc2ccc(cc2)Oc2cccc(c2)CO[C@H]2CCN(C(=O)c3cn4cccnc4n3)C[C@@H]2N1,5,-0.73
Cc1nn(C)cc1-c1c(C)c(-c2ccc3c(c2)OCO3)nc(N)c1C#N,-15,1.45
NC(=O)c1noc([C@@H]2CCCN2S(=O)(=O)Cc2c(F)cccc2F)n1,-3,0.36
CC1=C(C)CC(C(=O)Nc2nc(-c3ccc(Cl)cc3)cs2)C(C(=O)O)C1 (stereo not drawn),-10,1.63
Cc1ccc(N2CCN(c3ccc(C)cc3)C23C(=O)N(Cc2ccccc2Cl)c2ccccc23)cc1,-5,0.64
